Source: PubChem BioAssay (Tox21)
“And” between values parts separate entries of the source, which are not always exact repeats. Identical values can stand only once. Inconclusive means that the source gave no clear call. Such entries were picked first, then a sample of the others. Potencies of inconclusive entries are doubtful fits and often do not repeat. A structure can be active in one record and inactive in another. The source made the active and inactive calls. Calls follow the shape of the dose curve; as a rule, active = well fitted inhibition curve with a large enough effect in the signal ratio in the repeat runs (not every such curve was filed as active); inconclusive = weak or mixed curves, or effect the other way; inactive = no such curve, though single readings can be large or run the other way; the % refers to the signal ratio.

biological target: Estrogen receptor beta (Homo sapiens) (UniProt Q92731); assay: qHTS assay to identify small molecule antagonists of the estrogen receptor beta (ER-beta) signaling pathway (AID 1259378); conditions: ER-beta-UAS-bla HEK293T, beta-lactamase FRET ratio, 16 h; activity, negative = inhibition: at 92.4 µM (top of the series) unless noted
Chain of UniProt Q92731 (Q92731 whole entry, looked up): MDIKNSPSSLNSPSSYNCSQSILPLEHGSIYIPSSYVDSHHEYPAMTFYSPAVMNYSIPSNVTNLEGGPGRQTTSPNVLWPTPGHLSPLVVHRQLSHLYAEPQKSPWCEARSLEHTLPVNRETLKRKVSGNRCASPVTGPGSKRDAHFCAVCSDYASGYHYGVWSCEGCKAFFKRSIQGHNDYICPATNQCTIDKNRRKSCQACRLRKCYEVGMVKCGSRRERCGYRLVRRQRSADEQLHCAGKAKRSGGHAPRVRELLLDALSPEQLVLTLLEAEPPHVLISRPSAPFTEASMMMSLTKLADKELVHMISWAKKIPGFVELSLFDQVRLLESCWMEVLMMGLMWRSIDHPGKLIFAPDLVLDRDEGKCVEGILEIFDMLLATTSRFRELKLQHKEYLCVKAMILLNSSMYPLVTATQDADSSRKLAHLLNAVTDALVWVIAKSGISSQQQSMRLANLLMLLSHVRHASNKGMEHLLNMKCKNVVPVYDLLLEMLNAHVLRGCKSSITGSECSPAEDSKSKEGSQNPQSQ
Summary of the method: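 Antagonist mode: compounds added to beta-lactamase reporter HEK293T ER-beta-UAS cells stimulated with E2 (1nM final), 16 hr at 37C. LiveBLAzer B/G FRET substrate, 2 hours room temperature, fluorescence read-out.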
% is scaled to controls: 0 for no effect and ±100 for the full control effect; potency is read from the fitted curve at half-maximal effect; tags tell the direction and shape of the fitted curve or compound fluorescence and quenching.

SMILES | Potency | activity, negative = inhibition
C=C1CC[C@H](O)CC1=C/C=C1\CCC[C@]2(C)[C@@H]([C@H](C)/C=C/[C@H](C)C(C)C)CC[C@@H]12 | inconclusive: 34.1 µM [partial curve] and inconclusive: 30.6 µM | –
CC(C)C(=O)Nc1ccc([N+](=O)[O-])c(C(F)(F)F)c1 | inconclusive: 70.5 µM [inhibitor, single point] and active: 54.5 µM | –
Cc1ccc(S(=O)(=O)C(I)I)cc1 | inconclusive: 30.6 µM | –
O=S(=O)(c1ccc(OCc2ccccc2)cc1)c1ccccc1O | inconclusive: 27.3 µM [single point] | –
CCCOCC(C)OCC(C)O (centres undefined) | – | inactive: 2.23%
Cc1cc2nc3ccc(=[N+](C)C)cc-3sc2cc1N | inconclusive: 33.5 µM [inhibitor, single point] | –
O=C(C(Cl)Cl)N1CCOC12CCCCC2 | – | inactive: -4.02%
CCCCCCCCCCCCCCCO | inconclusive: 69.1 µM [activator, single point] | inconclusive: 3.63%
COC(=O)C1=C(C)NC(C)=C(C(=O)OC(C)(C)CN(C)CCC(c2ccccc2)c2ccccc2)C1c1cccc([N+](=O)[O-])c1 (centres undefined) | inconclusive: 23.7 µM [inhibitor, partial curve, poor fit] | –
Brc1nc2ccccc2s1 | – | inconclusive: -27.5%
CC(C)(C)C1CCC(O)CC1 (centres undefined) | – | inconclusive: -32.3%
Nc1ccc(Cl)c(N)c1 | – | inconclusive: -29.5%
CCN(CC)c1ccc2c(-c3ccccc3C(=O)O)c3ccc(=[N+](CC)CC)cc-3oc2c1 | inconclusive: 38.6 µM [inhibitor, partial curve] | –
COc1ccc(-c2cc(=S)ss2)cc1 | active: 13.3 µM | –
CCOC(=O)c1ccc(C2CCC(NC[C@H](O)COc3ccc(O)c(NS(C)(=O)=O)c3)CC2)cc1 (some centres undefined) | inconclusive: 63.3 µM | –
Cc1nccn1-c1ccc(Sc2cccc(C3(C(N)=O)CCOCC3)c2)cc1 | active: 9.69 µM | –
CCC(=O)c1ccc2c(c1)N(CCCN(C)C)c1ccccc1S2 | active: 26.6 µM | –
CN(C)Cc1cc(C(C)(C)C)c(O)c(C(C)(C)C)c1 | – | inconclusive: -29.4%
COC1=CC(=O)C[C@@H](C)[C@]12Oc1c(Cl)c(OC)cc(OC)c1C2=O | inconclusive: 21.5 µM [inhibitor, partial curve] | inconclusive: -36.1%
COc1ccc(CCO)cc1 | – | inactive: 5.64%

SMILES | Potency | activity, negative = inhibition
O=C1C=CC(=O)N1c1cccc(N2C(=O)C=CC2=O)c1 | active: 61.1 µM | –
CN1CCCCC1CCN1c2ccccc2Sc2ccc(S(C)=O)cc21 (centres undefined) | – | inconclusive: -28.4% [at 42.5 µM]
O=C1[C@H]2CCCC[C@H]2C(=O)N1CCCCN1CCN(c2nsc3ccccc23)CC1 | – | inconclusive: -34.8% [at 42.5 µM]
COc1ccc(-c2coc3cc(O)cc(O)c3c2=O)cc1 | inconclusive: 12.3 µM [rising, full curve] and inconclusive: 12.2 µM [rising, full curve] | –
Cc1ccc(Cl)cc1N | – | inactive: 1.37%
CCC(CN)=C(c1ccccc1)c1ccccc1 | active: 23.7 µM | –
CC/C=C\C/C=C\C/C=C\CCCCCCCC(=O)OC | inconclusive: 54.5 µM | –
Nc1ccc2c(O)cc(S(=O)(=O)O)cc2c1 | inconclusive: 15.4 µM [inhibitor, full curve] and active: 2.73 µM | –
c1csc(SSc2cccs2)c1 | – | inconclusive: -44%
Oc1c(Cl)cc(Cl)c(Cl)c1Cl | inconclusive: 5.98 µM [fluorescent, partial curve] and inconclusive: 19.3 µM [inhibitor, full curve] | –
Fc1ccc(C(c2ccc(F)cc2)N2CCN(C/C=C/c3ccccc3)CC2)cc1 | active: 16.8 µM | –
O=C(N[C@@H](c1ccccc1)[C@@H]1CCCCN1)c1cccc(C(F)(F)F)c1Cl | active: 43.3 µM | –
CCc1nn(CCCN2CCN(c3cccc(Cl)c3)CC2)c(=O)n1CCOc1ccccc1 | inconclusive: 13.3 µM [inhibitor, full curve] | –
O=C(/C=C/c1ccc([N+](=O)[O-])cc1)c1ccccc1 | – | inconclusive: 9.15%
O=C1c2ccccc2C(=O)c2c(O)ccc(O)c21 | – | inconclusive: 22.2%
O=c1c(-c2ccccc2)c1-c1ccccc1 | active: 10.6 µM | –
O=C(Oc1ccccc1)c1ccccc1C(=O)Oc1ccccc1 | active: 48.6 µM | –
Nc1c(S(=O)(=O)O)cc(Br)c2c1C(=O)c1ccccc1C2=O | – | inconclusive: 10.1% [at 42.5 µM]
COC(=O)c1ccccc1O | inactive | –

same assay, conditions: ER-beta-UAS-bla HEK293T, beta-lactamase FRET ratio, 16 h; at 92.4 µM (top of the series)

SMILES | activity, negative = inhibition
CCn1cc(C(=O)O)c(=O)c2ccc(C)nc21 | inactive: -0.766% and inconclusive: 3.69%
CC(C)(C)C1CCC(O)CC1 (centres undefined) | inactive: 11.2%
Nc1ccc(Cl)c(N)c1 | inactive: -25.6%
